57 compounds from publication PMC4336329 (PLoS ONE, 2015) can be followed below.

Among all 310,000 compounds or so, about 2,200 (0.71%) showed an effect of 50% or more. The effect is printed as a negative number. The list shows a part of the results.

The target in this assay is human ether-à-go-go-related gene (hERG) potassium channel (human, UniProt Q12809). The experiment in a line: primary screen, population patch clamp on CHO cells stably expressing hERG.
human ether-à-go-go-related gene (hERG) potassium channel, sequence (Q12809 whole entry, looked up): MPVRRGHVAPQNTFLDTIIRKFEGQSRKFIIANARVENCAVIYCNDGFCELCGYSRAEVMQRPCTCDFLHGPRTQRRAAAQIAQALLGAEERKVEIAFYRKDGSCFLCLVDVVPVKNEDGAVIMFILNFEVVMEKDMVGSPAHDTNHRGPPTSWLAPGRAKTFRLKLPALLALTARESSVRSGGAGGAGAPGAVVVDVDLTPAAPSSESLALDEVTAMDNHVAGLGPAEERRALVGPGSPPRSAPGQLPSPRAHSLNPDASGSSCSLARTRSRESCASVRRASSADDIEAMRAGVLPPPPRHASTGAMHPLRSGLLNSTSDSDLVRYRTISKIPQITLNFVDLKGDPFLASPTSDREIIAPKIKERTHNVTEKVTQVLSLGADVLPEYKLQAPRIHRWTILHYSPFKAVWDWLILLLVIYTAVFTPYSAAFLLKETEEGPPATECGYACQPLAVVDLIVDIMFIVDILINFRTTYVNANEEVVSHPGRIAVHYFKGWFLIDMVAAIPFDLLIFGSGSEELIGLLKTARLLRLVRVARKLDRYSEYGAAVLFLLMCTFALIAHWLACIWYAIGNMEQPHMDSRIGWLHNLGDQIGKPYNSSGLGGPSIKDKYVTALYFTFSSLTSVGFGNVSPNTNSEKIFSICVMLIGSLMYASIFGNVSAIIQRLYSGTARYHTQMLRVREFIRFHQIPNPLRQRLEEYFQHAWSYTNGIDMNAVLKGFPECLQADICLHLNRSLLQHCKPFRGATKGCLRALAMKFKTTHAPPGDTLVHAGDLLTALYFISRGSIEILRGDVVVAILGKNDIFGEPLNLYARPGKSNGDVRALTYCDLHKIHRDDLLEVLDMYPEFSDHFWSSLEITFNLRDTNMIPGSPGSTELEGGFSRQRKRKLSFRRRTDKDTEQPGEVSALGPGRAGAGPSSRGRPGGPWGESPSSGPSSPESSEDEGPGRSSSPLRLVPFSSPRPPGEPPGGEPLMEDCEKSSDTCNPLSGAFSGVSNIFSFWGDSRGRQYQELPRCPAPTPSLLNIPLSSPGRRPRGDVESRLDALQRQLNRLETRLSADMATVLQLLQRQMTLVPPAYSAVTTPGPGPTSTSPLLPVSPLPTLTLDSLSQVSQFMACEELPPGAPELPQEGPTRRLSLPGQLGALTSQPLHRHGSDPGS
As for `Cc1cc(C)c(NC(=O)COC(=O)/C=C/c2cccc(C(F)(F)F)c2)c(C)c1`, the “hERG current change (%, negative = inhibition) at 1uM” value was determined as 6.47%. With `O=c1c2ccccc2n(Cc2ccc(Cl)cc2)c(=O)n1Cc1ccco1` the figure was 9.63%. On to `CCCCCCSc1cccc(-c2nc3ccc(C)cn3c2NCc2ccccc2)c1.O=C(O)C(F)(F)F`, for which the “hERG current change (%, negative = inhibition) at 1uM” value is reported as 10.4%. Take `COC(=O)c1cc[n+](CC(=O)c2ccccc2)cc1.[Br-]`: the “hERG current change (%, negative = inhibition) at 1uM” value is 2.61%. The figure for `CN(CCO)CCC(=O)NC1(C)CS(=O)(=O)CC1S(=O)(=O)[O-].[Na+]` (stereo not drawn) is 8.12%; for `Cc1nn2c(-c3ccc(F)cc3)ccnc2c1Cl` it is 10.9%. For the compound `Cc1nn(C)c(C(=O)N/N=C/c2ccc(Br)cc2)c1Cl`, the “hERG current change (%, negative = inhibition) at 1uM” value came out at 12.7%. The figure for `C=C(C)Cn1c(SCC(=O)N/N=C/c2c(O)ccc3ccccc23)nc2ccccc2c1=O` is 12.3%; for `CC(C)N(CC(=O)Nc1ccc(Cl)cc1C(F)(F)F)C(=O)CCl` it is 12.5%. Regarding `O=C1ON=C(c2ccccc2)/C1=C/c1ccco1`, the “hERG current change (%, negative = inhibition) at 1uM” value was found to be 7.57%. With `COc1ccccc1-c1nnc2sc(-c3cc4ccccc4o3)nn12` the figure was -0.794%; with `CCOc1ccc(N2CC(C(=O)NCc3cccc(C)c3)CC2=O)cc1` (stereo not drawn), -11.2%. With `CCCn1c(NCc2cccc(OC)c2OC)nc2ccccc21` the figure was -1.9%; with `Cc1c(N)cccc1-n1cccc1`, 8.94%; with `CCn1cnc2c1c(=O)n(CC(=O)NCC(F)(F)F)c(=O)n2Cc1ccccc1`, -1.01%. As to `COc1ccc(S(=O)(=O)N2CCOC23CCN(S(C)(=O)=O)CC3)cc1`, the “hERG current change (%, negative = inhibition) at 1uM” value was 5.25%. The figure for `Cc1c(Cl)c([N+](=O)[O-])nn1CCCC(=O)Nc1sc2c(c1C(N)=O)CCC(C)C2` (stereo not drawn) is 9.81%; for `CCOC(=O)N1CCC(Nc2ncnc3c2cnn3-c2ccc(C)cc2C)CC1` it is 4.8%; for `CCCOc1ccc([N+](=O)[O-])c(N)c1` it is 7%. The figure for `CC(Oc1ccc(Cl)cc1)C(=O)NNC(=S)NC(=O)c1ccco1` (stereo not drawn) is 6.4%. The figure for `CCN1C(=O)/C(=C\c2ccc(F)cc2)N=C1SCC(=O)NCc1ccco1` is 7.14%; for `O=C(Nc1ccccc1)c1cc(S(=O)(=O)N2CCSCC2)ccc1Cl` it is 8.24%; for `Cc1ccc(C)c(NC(=S)NC(C)C(c2ccccc2)N2CCN(C)CC2)c1` (stereo not drawn) it is -11%. With `O=C(Cc1ccc(Cl)cc1Cl)Nc1ccncc1Cl`, the “hERG current change (%, negative = inhibition) at 1uM” value is reported as 11.5%.

Consider `O=C(Cn1cnc(S(=O)(=O)N2CCCC2)c1)Nc1ccc(OC(F)(F)F)cc1`, for which the “hERG current change (%, negative = inhibition) at 1uM” value came out at 16.1%. For the compound `Nc1ccccc1C(=O)Nc1nccs1`, the “hERG current change (%, negative = inhibition) at 1uM” value was found to be 14.4%. With `CCOC(=O)C(=O)Nc1cc(C)nn1-c1nc2ccccc2[nH]1` the figure was 14.5%. For the compound `O=C(N/N=C/c1ccccn1)c1cc(-c2ccc(Br)cc2)nc2ccccc12`, the “hERG current change (%, negative = inhibition) at 1uM” value is recorded as 11.2%. With `CC(=O)Nc1ccc(NC(=O)c2cc[n+]([O-])cc2)cc1` the figure was 12.1%; with `COc1cccc(/C=N/n2c(C3CCCCC3)n[nH]c2=S)c1O`, 10.6%; with `C/C(=N/Nc1ccc([N+](=O)[O-])cc1)c1c[nH]c2ccccc12`, 19.3%.

Consider `COc1ccc(CN2C(=O)c3ccccc3C(/C=N\OCc3ccc(F)cc3)C2=O)cc1` (stereo not drawn), for which the “hERG current change (%, negative = inhibition) at 1uM” value was 11.9%. With `COc1ccc(CCCc2nnc(SCC(=O)Nc3nc(C)cs3)n2C)cc1C` the figure was -3.04%; with `COc1ccc(CCN2C(=O)C(C)=C(C)C2=O)cc1OC`, 12.8%. With `CC1CCCC(NC(=O)COC(=O)c2c[nH]c(=O)[nH]c2=O)C1C` (stereo not drawn) the figure was 2.79%. Turning to `CC(=O)Nc1nc2nc(-c3ccccc3)cc(-c3ccccc3)n2n1`, the “hERG current change (%, negative = inhibition) at 1uM” value stood at 15.1%. The figure for `Cc1cccc(NC(=S)N2CCCN(c3ncccc3[N+](=O)[O-])CC2)c1` is 9.31%; for `CCO[C@@H]1OC(C(=O)N2CCN(Cc3ccc4c(c3)OCO4)CC2)=C[C@H](C2CCCCC2)[C@H]1CCCO` it is 2.05%.

On to `Cn1c(SCC(=O)NC2CCCCC2)nnc1-c1cccc(N)c1`, for which the “hERG current change (%, negative = inhibition) at 1uM” value is 12%. The figure for `CN1C(=S)SC(C)(C)C1/[N+]([O-])=C/c1cccnc1` (stereo not drawn) is 11.8%; for `Cn1c(=O)[nH]c(=O)c2c1nc(N1CCN(C(c3ccccc3)c3ccccc3)CC1)n2CCO` it is 10.1%; for `O=C(O)CCCCCNC(=O)c1ccccc1Br` it is 14.2%. Turning to `Cc1nc(C(=O)NCc2ccccc2)sc1C1(C)CC(c2ccccc2)=NO1` (stereo not drawn), the “hERG current change (%, negative = inhibition) at 1uM” value stood at 9.43%.

Regarding `CCCn1c(SCC(=O)N(C)CC(=O)Nc2ccc(C)cc2)n[nH]c1=O`, the “hERG current change (%, negative = inhibition) at 1uM” value is given as -2.4%. With `CC1=[N+](C)N(c2ccccc2)C(=O)C1N=Cc1ccccc1Cl` (stereo not drawn) the figure was 3.3%. For `Clc1ccc(Nc2ncn[nH]2)c(Cl)c1`, the “hERG current change (%, negative = inhibition) at 1uM” value came out at 13.2%. With `COc1ccc(CN2CCN(C(=O)CCC(=O)Nc3nnc(CC(C)C)s3)CC2)cc1F` the figure was 5.66%. With `COc1ccc(-c2cc(-c3n[nH]c(=S)n3-c3cc(OC)ccc3OC)[nH]n2)cc1` the figure was 11.9%. As for `Cc1ccccc1Nc1nc(N)nc(CSc2nc3ccccc3c(=O)n2CCCO)n1`, the “hERG current change (%, negative = inhibition) at 1uM” value was found to be 7.88%.

Take `CCCCOC(=O)/C(=C/C=C/c1ccccc1)NC(=O)c1ccccc1`: the “hERG current change (%, negative = inhibition) at 1uM” value was found to be 8.86%. Regarding `N#CCc1c(C#N)c(N)nc(Nc2ccccc2)c1C#N`, the “hERG current change (%, negative = inhibition) at 1uM” value came out at 16.7%. With `O=C(COc1ccccc1)N=C1SC2CS(=O)(=O)CC2N1c1ccccc1` (stereo not drawn), the “hERG current change (%, negative = inhibition) at 1uM” value is 12.9%. As to `S=C(NCc1ccco1)Nc1ccc(Cl)c(Cl)c1`, the “hERG current change (%, negative = inhibition) at 1uM” value was 5.09%.

With `CCCc1ccc(OCC(O)CN2CCN(c3ccccc3)CC2)cc1.Cl` (stereo not drawn), the “hERG current change (%, negative = inhibition) at 1uM” value is -9.04%.

Take `Cn1c(=O)[nH]c(=O)c2c1ncn2CCN1CCOCC1`: the “hERG current change (%, negative = inhibition) at 1uM” value is 8.41%. Regarding `Cc1ccc(Cl)cc1C1=CC(=O)C[C@H](c2ccc(F)cc2)C1`, the “hERG current change (%, negative = inhibition) at 1uM” value was 12.1%.

For `Oc1ccc(/C=N/NC(=S)Nc2cccnc2)cc1O`, the “hERG current change (%, negative = inhibition) at 1uM” value is given as 11.7%.
